# This is one part of the list.
# Experiments:
# Test in all cases: glycan array binding signal (z-score within array); higher = stronger binding
# Conditions in all cases: glycan notation: IUPAC condensed, linker removed
# [1] = biological target: Gal(a1-3)Gal(b1-4)GlcNAc(b1-2)Man(a1-3)[Gal(a1-3)Gal(b1-4)GlcNAc(b1-2)Man(a1-6)]Man(b1-4)GlcNAc(b1-4)GlcNAc
# Method in brief: (§1)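 Glycan array data came from 3228 arrays in the Consortium for Functional Glycomics database, and only arrays with an available protein sequence were kept. Glycan names were put into IUPAC-condensed notation, and columns mapping to the same glycan were averaged. The binding signal is a within-array Z-score, averaged across arrays of one protein sequence run at different concentrations or buffers and across linkers. A negative Z-score can be read as non-binding.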
# [2] = biological target: Gal(a1-3)Gal(b1-4)GlcNAc(b1-3)GalNAc
# Method in brief: as §1
# [3] = biological target: Gal(a1-3)Gal(b1-4)GlcNAc(b1-6)GalNAc
# Method in brief: as §1
# [4] = biological target: Gal(a1-3)Gal(b1-4)[Fuc(a1-3)]GlcNAc
# Method in brief: as §1
# [5] = biological target: Gal(a1-3)Gal(b1-4)[Fuc(a1-3)]GlcNAc(b1-2)Man(a1-3)[Gal(a1-3)Gal(b1-4)[Fuc(a1-3)]GlcNAc(b1-2)Man(a1-6)]Man(b1-4)GlcNAc(b1-4)GlcNAc
# Method in brief: as §1
# [6] = biological target: Gal(a1-3)GalNAc
# Method in brief: as §1
# [7] = biological target: Gal(a1-3)[Gal(a1-4)]Gal(b1-4)GlcNAc
# Method in brief: as §1
# [8] = biological target: Gal(a1-4)Gal(b1-3)GlcNAc(b1-2)Man(a1-3)[Gal(a1-4)Gal(b1-3)GlcNAc(b1-2)Man(a1-6)]Man(b1-4)GlcNAc(b1-4)GlcNAc
# Method in brief: as §1
# [9] = biological target: Gal(a1-4)Gal(b1-4)Glc
# Method in brief: as §1
# [10] = biological target: Gal(a1-4)Gal(b1-4)GlcNAc
# Method in brief: as §1
# [11] = biological target: Gal(a1-4)Gal(b1-4)GlcNAc(b1-2)Man(a1-3)[Gal(a1-4)Gal(b1-4)GlcNAc(b1-2)Man(a1-6)]Man(b1-4)GlcNAc(b1-4)GlcNAc
# Method in brief: as §1
# [12] = biological target: Gal(a1-4)Gal(b1-4)GlcNAc(b1-3)Gal(b1-4)Glc
# Method in brief: as §1
# [13] = biological target: Gal(a1-4)GlcNAc
# Method in brief: as §1
# [14] = biological target: Gal(a1-6)Glc
# Method in brief: as §1
# [15] = biological target: Gal(b1-2)Gal
# Method in brief: as §1
# [16] = biological target: Gal(b1-3)Gal
# Method in brief: as §1
# [17] = biological target: Gal(b1-3)Gal(b1-4)GlcNAc
# Method in brief: as §1
# [18] = biological target: Gal(b1-3)GalNAc
# Method in brief: as §1
# [19] = biological target: Gal(b1-3)GalNAc(a1-3)[Fuc(a1-2)]Gal(b1-4)Glc
# Method in brief: as §1
# [20] = biological target: Gal(b1-3)GalNAc(a1-3)[Fuc(a1-2)]Gal(b1-4)GlcNAc
# Method in brief: as §1
# [21] = biological target: Gal(b1-3)GalNAc(b1-3)Gal
# Method in brief: as §1
# [22] = biological target: Gal(b1-3)GalNAc(b1-3)Gal(a1-4)Gal(b1-4)Glc
# Method in brief: as §1
# [23] = biological target: Gal(b1-3)GalNAc(b1-4)Gal(b1-4)Glc
# Method in brief: as §1
# [24] = biological target: Gal(b1-3)GalNAc(b1-4)[Neu5Ac(a2-3)]Gal(b1-4)Glc
# Method in brief: as §1
# [25] = biological target: Gal(b1-3)GlcNAc
# Method in brief: as §1
# [26] = biological target: Gal(b1-3)GlcNAc(a1-3)Gal(b1-4)GlcNAc
# Method in brief: as §1
# [27] = biological target: Gal(b1-3)GlcNAc(a1-6)Gal(b1-4)GlcNAc
# Method in brief: as §1
# [28] = biological target: Gal(b1-3)GlcNAc(b1-2)Man
# Method in brief: as §1
# [29] = biological target: Gal(b1-3)GlcNAc(b1-2)Man(a1-3)[Gal(b1-3)GlcNAc(b1-2)Man(a1-6)]Man(b1-4)GlcNAc(b1-4)GlcNAc
# Method in brief: as §1
# [30] = biological target: Gal(b1-3)GlcNAc(b1-2)Man(a1-3)[Gal(b1-3)GlcNAc(b1-2)Man(a1-6)]Man(b1-4)GlcNAc(b1-4)[Fuc(a1-6)]GlcNAc
# Method in brief: as §1
# [31] = biological target: Gal(b1-3)GlcNAc(b1-2)Man(a1-3)[GlcNAc(b1-4)][Gal(b1-3)GlcNAc(b1-2)Man(a1-6)]Man(b1-4)GlcNAc(b1-4)GlcNAc
# Method in brief: as §1
# [32] = biological target: Gal(b1-3)GlcNAc(b1-2)[Gal(b1-3)GlcNAc(b1-6)]Man(a1-6)[Gal(b1-3)GlcNAc(b1-2)Man(a1-3)]Man(b1-4)GlcNAc(b1-4)GlcNAc
# Method in brief: as §1
# [33] = biological target: Gal(b1-3)GlcNAc(b1-3)Gal(b1-3)GlcNAc
# Method in brief: as §1
# [34] = biological target: Gal(b1-3)GlcNAc(b1-3)Gal(b1-4)Glc
# Method in brief: as §1
# [35] = biological target: Gal(b1-3)GlcNAc(b1-3)Gal(b1-4)GlcNAc
# Method in brief: as §1
# [36] = biological target: Gal(b1-3)GlcNAc(b1-3)Gal(b1-4)GlcNAc(b1-2)Man(a1-3)[Gal(b1-3)GlcNAc(b1-3)Gal(b1-4)GlcNAc(b1-2)Man(a1-6)]Man(b1-4)GlcNAc(b1-4)GlcNAc
# Method in brief: as §1
# [37] = biological target: Gal(b1-3)GlcNAc(b1-3)Gal(b1-4)GlcNAc(b1-2)[Gal(b1-3)GlcNAc(b1-3)Gal(b1-4)GlcNAc(b1-6)]Man(a1-6)[Gal(b1-3)GlcNAc(b1-3)Gal(b1-4)GlcNAc(b1-2)Man(a1-3)]Man(b1-4)GlcNAc(b1-4)[Fuc(a1-6)]GlcNAc
# Method in brief: as §1
# [38] = biological target: Gal(b1-3)GlcNAc(b1-3)Gal(b1-4)GlcNAc(b1-3)Gal(b1-4)GlcNAc(b1-2)[Gal(b1-3)GlcNAc(b1-3)Gal(b1-4)GlcNAc(b1-3)Gal(b1-4)GlcNAc(b1-6)]Man(a1-6)[Gal(b1-3)GlcNAc(b1-3)Gal(b1-4)GlcNAc(b1-3)Gal(b1-4)GlcNAc(b1-2)Man(a1-3)]Man(b1-4)GlcNAc(b1-4)[Fuc(a1-6)]GlcNAc
# Method in brief: as §1
# [39] = biological target: Gal(b1-3)GlcNAc(b1-3)Gal(b1-4)GlcNAc(b1-6)[Gal(b1-3)GlcNAc(b1-3)]Gal(b1-4)Glc
# Method in brief: as §1
# [40] = biological target: Gal(b1-3)GlcNAc(b1-3)Gal(b1-4)[Fuc(a1-3)]GlcNAc
# Method in brief: as §1
# [41] = biological target: Gal(b1-3)GlcNAc(b1-3)Gal(b1-4)[Fuc(a1-3)]GlcNAc(b1-6)[Gal(b1-3)GlcNAc(b1-3)]Gal(b1-4)Glc
# Method in brief: as §1
# [42] = biological target: Gal(b1-3)GlcNAc(b1-3)GalNAc
# Method in brief: as §1
# [43] = biological target: Gal(b1-3)GlcNAc(b1-6)Gal(b1-4)GlcNAc
# Method in brief: as §1
# [44] = biological target: Gal(b1-3)GlcNAc(b1-6)GalNAc
# Method in brief: as §1
# [45] = biological target: Gal(b1-3)GlcNAc(b1-6)[Gal(b1-3)]GalNAc
# Method in brief: as §1
binder,measurement,setting,value
Fm1D (Escherichia coli) (protein) FSCNVDGGSSIGAGTTSVYVNLDPVIQPGQNLVVDLSQHISCWNDYGGWYDTDHINLVQGSAFAGSLQSYKGSLYWNNVTYPFPLTTNTNVLDIGDKTPMPLPLKLYITPVGAAGGVVIKAGEVIARIHMYKIATLGSGNPRNFTWNIISNNSVVMPTHHHHHH,glycan array binding signal (z-score),[1],-0.138
same,glycan array binding signal (z-score),[2],-0.148
same,glycan array binding signal (z-score),[3],-0.143
same,glycan array binding signal (z-score),[4],-0.142
same,glycan array binding signal (z-score),[5],-0.139
same,glycan array binding signal (z-score),[6],-0.138
same,glycan array binding signal (z-score),[7],-0.125
same,glycan array binding signal (z-score),[8],-0.136
same,glycan array binding signal (z-score),[9],-0.142
same,glycan array binding signal (z-score),[10],-0.141
same,glycan array binding signal (z-score),[11],-0.14
same,glycan array binding signal (z-score),[12],-0.144
same,glycan array binding signal (z-score),[13],-0.141
same,glycan array binding signal (z-score),[14],-0.143
same,glycan array binding signal (z-score),[15],-0.138
same,glycan array binding signal (z-score),[16],-0.126
same,glycan array binding signal (z-score),[17],-0.137
same,glycan array binding signal (z-score),[18],2.2
same,glycan array binding signal (z-score),[19],-0.146
same,glycan array binding signal (z-score),[20],-0.14
same,glycan array binding signal (z-score),[21],-0.12
same,glycan array binding signal (z-score),[22],-0.118
same,glycan array binding signal (z-score),[23],-0.125
same,glycan array binding signal (z-score),[24],-0.132
same,glycan array binding signal (z-score),[25],-0.137
same,glycan array binding signal (z-score),[26],-0.147
same,glycan array binding signal (z-score),[27],-0.147
same,glycan array binding signal (z-score),[28],-0.141
same,glycan array binding signal (z-score),[29],-0.141
same,glycan array binding signal (z-score),[30],-0.142
same,glycan array binding signal (z-score),[31],-0.145
same,glycan array binding signal (z-score),[32],-0.141
same,glycan array binding signal (z-score),[33],-0.146
same,glycan array binding signal (z-score),[34],-0.141
same,glycan array binding signal (z-score),[35],-0.142
same,glycan array binding signal (z-score),[36],-0.144
same,glycan array binding signal (z-score),[37],-0.123
same,glycan array binding signal (z-score),[38],-0.112
same,glycan array binding signal (z-score),[39],-0.143
same,glycan array binding signal (z-score),[40],-0.144
same,glycan array binding signal (z-score),[41],-0.14
same,glycan array binding signal (z-score),[42],-0.143
same,glycan array binding signal (z-score),[43],-0.146
same,glycan array binding signal (z-score),[44],-0.12
same,glycan array binding signal (z-score),[45],3.7
